From PMC10163088
No constants are given. Whether binding was seen depends on the method and setting. In cells and extracts the contact can be indirect. Some entries that bind do so weakly or less than the wild type. For part of these data: Where a sequence is shown, tags or fusion partners need not be part of it.

The chains behind the UniProt entries cited, without tags or fusion partners.
UniProt P26343: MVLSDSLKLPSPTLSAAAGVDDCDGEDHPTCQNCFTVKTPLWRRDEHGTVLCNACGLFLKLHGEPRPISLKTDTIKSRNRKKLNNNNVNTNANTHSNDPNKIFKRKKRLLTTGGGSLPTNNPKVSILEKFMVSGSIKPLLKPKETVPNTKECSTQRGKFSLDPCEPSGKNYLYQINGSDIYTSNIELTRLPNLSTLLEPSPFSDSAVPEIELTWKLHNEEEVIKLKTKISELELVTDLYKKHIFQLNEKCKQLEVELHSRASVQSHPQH

T1: GST-Cti6 (full-length) (S. cerevisiae) (UniProt Q08923)
T1 sequence: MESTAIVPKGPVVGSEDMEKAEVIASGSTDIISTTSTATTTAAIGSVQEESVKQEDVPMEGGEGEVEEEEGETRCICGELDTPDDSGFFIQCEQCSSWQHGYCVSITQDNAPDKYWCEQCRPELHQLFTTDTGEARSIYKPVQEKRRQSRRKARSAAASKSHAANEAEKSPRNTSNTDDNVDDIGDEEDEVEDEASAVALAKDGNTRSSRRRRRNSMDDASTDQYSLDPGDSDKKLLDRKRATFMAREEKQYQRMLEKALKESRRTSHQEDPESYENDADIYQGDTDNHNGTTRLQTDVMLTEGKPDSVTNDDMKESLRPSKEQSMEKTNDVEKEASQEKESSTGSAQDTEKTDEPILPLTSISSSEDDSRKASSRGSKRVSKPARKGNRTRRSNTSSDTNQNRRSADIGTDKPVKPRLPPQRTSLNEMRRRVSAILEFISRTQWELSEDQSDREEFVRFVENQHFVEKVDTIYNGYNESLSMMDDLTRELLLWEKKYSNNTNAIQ

T2: GST-Gal80 (full-length) (S. cerevisiae) (UniProt P04387)
T2 sequence: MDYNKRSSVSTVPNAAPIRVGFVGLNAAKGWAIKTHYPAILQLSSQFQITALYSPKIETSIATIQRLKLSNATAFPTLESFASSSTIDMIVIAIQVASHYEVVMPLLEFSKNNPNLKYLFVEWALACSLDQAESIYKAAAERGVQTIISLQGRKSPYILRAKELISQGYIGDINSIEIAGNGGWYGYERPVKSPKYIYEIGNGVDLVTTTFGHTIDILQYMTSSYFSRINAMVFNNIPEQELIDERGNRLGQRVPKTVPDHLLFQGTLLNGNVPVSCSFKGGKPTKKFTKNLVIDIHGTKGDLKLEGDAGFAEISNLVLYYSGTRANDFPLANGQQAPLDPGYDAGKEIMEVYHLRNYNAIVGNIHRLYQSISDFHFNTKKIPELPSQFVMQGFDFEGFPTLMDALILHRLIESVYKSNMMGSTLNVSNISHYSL

T3: GST-Ure2 (full-length) (S. cerevisiae) (UniProt P23202)
T3 sequence: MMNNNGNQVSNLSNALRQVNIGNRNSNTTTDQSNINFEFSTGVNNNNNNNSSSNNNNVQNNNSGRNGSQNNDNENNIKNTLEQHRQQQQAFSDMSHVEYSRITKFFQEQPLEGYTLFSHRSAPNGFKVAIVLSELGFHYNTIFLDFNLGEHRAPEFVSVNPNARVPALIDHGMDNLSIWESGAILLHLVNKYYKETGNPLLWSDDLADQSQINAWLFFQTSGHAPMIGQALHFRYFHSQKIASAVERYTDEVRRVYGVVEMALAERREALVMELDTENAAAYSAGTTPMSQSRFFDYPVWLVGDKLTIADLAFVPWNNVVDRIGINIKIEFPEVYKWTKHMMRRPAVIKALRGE

T4: GST-Yox1 (full-length) (S. cerevisiae) (UniProt P34161)
T4 sequence: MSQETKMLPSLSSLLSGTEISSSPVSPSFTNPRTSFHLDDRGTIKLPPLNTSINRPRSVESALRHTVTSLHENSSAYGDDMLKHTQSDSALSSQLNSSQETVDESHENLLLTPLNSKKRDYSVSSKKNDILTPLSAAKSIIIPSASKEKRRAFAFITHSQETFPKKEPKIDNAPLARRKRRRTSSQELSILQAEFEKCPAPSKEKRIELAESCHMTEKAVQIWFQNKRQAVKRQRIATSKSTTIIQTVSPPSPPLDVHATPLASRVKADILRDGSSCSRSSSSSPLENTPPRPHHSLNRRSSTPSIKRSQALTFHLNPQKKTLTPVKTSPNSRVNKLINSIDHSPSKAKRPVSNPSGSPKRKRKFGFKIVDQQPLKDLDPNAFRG

T5: GST-Sko1 (full-length) (S. cerevisiae), Q02100
T5 chain: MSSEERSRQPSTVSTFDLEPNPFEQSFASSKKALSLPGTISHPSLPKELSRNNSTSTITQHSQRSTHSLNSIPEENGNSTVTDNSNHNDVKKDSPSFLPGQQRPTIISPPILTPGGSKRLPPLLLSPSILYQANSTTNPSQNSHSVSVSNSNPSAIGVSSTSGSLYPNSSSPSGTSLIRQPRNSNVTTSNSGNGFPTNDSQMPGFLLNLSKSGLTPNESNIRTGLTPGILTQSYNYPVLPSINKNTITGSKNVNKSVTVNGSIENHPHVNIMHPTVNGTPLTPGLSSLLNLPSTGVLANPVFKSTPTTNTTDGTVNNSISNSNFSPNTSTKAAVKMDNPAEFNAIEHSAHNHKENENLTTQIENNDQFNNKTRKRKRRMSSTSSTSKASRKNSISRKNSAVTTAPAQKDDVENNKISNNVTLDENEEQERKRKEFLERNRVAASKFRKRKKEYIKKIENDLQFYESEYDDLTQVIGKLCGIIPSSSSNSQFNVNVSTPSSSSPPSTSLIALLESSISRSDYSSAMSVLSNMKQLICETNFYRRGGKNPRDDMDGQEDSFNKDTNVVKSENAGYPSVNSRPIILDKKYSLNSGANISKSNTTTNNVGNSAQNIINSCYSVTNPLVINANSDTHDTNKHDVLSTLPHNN

T6: GST-Whi5 (full-length) (S. cerevisiae) (UniProt Q12416)
T6 sequence: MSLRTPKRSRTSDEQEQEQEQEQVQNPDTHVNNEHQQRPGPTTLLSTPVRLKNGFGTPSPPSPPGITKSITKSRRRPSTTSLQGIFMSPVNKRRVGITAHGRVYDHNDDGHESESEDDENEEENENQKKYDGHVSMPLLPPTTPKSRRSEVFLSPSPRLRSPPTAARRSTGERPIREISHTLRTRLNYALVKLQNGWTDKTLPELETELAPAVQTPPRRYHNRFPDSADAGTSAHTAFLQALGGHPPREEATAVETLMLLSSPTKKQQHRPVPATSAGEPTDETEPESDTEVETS


Experiments:
[1] = target: T1, GST-Cti6 (full-length) (S. cerevisiae); assay: pull-down; GST fusions of repressors (full-length or length variants) immobilised on GSH sepharose, incubated with bacterial total protein extracts containing HA-tagged Sin3, Cyc8 or Tup1 (or Tup1 length variants); elution with free GSH, anti-HA blot (Figs. 1, 3, 4, 5); only the target purified
[2] = target: GST-Dal80 (full-length) (S. cerevisiae) (UniProt P26343); assay: as above
[3] = target: T2, GST-Gal80 (full-length) (S. cerevisiae); assay: as above
[4] = target: T3, GST-Ure2 (full-length) (S. cerevisiae); assay: as above
[5] = target: T4, GST-Yox1 (full-length) (S. cerevisiae); assay: as above
[6] = target: T5, GST-Sko1 (full-length) (S. cerevisiae), …; assay: as above; conditions: remark: other sources report otherwise
[7] = target: T6, GST-Whi5 (full-length) (S. cerevisiae); assay: pull-down; GST fusions of full-length repressors immobilised on GSH sepharose, incubated with protein extracts from yeast transformants containing epitope-tagged Sin3 length variants; anti-HA blot (Fig. 2); only the target purified

Molecule | binding [1] | binding [2] | binding [3] | binding [4] | binding [5] | binding [6] | binding [7]
HA3-Tup1 length variant aa 340-713 (seven WD40 repeats; pVS2) (from UniProt P16649 340-713) (domain or fragment) | binds | binds | binds | binds | binds | – | –
HA3-Tup1 length variant aa 599-713 (WD40 repeats 6 and 7; pVS5) (from UniProt P16649 599-713) (domain or fragment) | binds | binds | binds | binds | binds | – | –
HA3-Tup1 length variant aa 1-339 (no WD40 repeats; pVS1) (from UniProt P16649 1-339) (domain or fragment) | no binding | no binding | no binding | no binding | no binding | – | –
HA3-Tup1 (full-length; pFK76), P16649 1-713 (protein) MTASVSNTQNKLNELLDAIRQEFLQVSQEANTYRLQNQKDYDFKMNQQLAEMQQIRNTVYELELTHRKMKDAYEEEIKHLKLGLEQRDHQIASLTVQQQRQQQQQQQVQQHLQQQQQQLAAASASVPVAQQPPATTSATATPAANTTTGSPSAFPVQASRPNLVGSQLPTTTLPVVSSNAQQQLPQQQLQQQQLQQQQPPPQVSVAPLSNTAINGSPTSKETTTLPSVKAPESTLKETEPENNNTSKINDTGSATTATTTTATETEIKPKEEDATPASLHQDHYLVPYNQRANHSKPIPPFLLDLDSQSVPDALKKQTNDYYILYNPALPREIDVELHKSLDHTSVVCCVKFSNDGEYLATGCNKTTQVYRVSDGSLVARLSDDSAANNHRNSITENNTTTSTDNNTMTTTTTTTITTTAMTSAAELAKDVENLNTSSSPSSDLYIRSVCFSPDGKFLATGAEDRLIRIWDIENRKIVMILQGHEQDIYSLDYFPSGDKLVSGSGDRTVRIWDLRTGQCSLTLSIEDGVTTVAVSPGDGKYIAAGSLDRAVRVWDSETGFLVERLDSENESGTGHKDSVYSVVFTRDGQSVVSGSLDRSVKLWNLQNANNKSDSKTPNSGTCEVTYIGHKDFVLSVATTQNDEYILSGSKDRGVLFWDKKSGNPLLMLQGHRNSVISVAVANGSPLGPEYNVFATGSGDCKARIWKYKKIAPN | – | – | – | – | – | binds | –
epitope-tagged Sin3 length variant 601-950 (PAH3 + HID1; pYJ90) (domain or fragment, UniProt P22579 601-950) TSLTEQYAPSSIQHQQQHPQSISPIANTQYGDIPVRPEIDLDPSIVPVVPEPTEPIENNISLNEEVTFFEKAKRYIGNKHLYTEFLKILNLYSQDILDLDDLVEKVDFYLGSNKELFTWFKNFVGYQEKTKCIENIVHEKHRLDLDLCEAFGPSYKRLPKSDTFMPCSGRDDMCWEVLNDEWVGHPVWASEDSGFIAHRKNQYEETLFKIEEERHEYDFYIESNLRTIQCLETIVNKIENMTENEKANFKLPPGLGHTSMTIYKKVIRKVYDKERGFEIIDALHEHPAVTAPVVLKRLKQKDEEWRRAQREWNKVWRELEQKVFFKSLDHLGLTFKQADKKLLTTKQLIS | – | – | – | – | – | – | binds
epitope-tagged Sin3 length variant 801-1100 (HID1; pYJ89) (domain or fragment, UniProt P22579 801-1100) NQYEETLFKIEEERHEYDFYIESNLRTIQCLETIVNKIENMTENEKANFKLPPGLGHTSMTIYKKVIRKVYDKERGFEIIDALHEHPAVTAPVVLKRLKQKDEEWRRAQREWNKVWRELEQKVFFKSLDHLGLTFKQADKKLLTTKQLISEISSIKVDQTNKKIHWLTPKPKSQLDFDFPDKNIFYDILCLADTFITHTTAYSNPDKERLKDLLKYFISLFFSISFEKIEESLYSHKQNVSESSGSDDGSSIASRKRPYQQEMSLLDILHRSRYQKLKRSNDEDGKVPQLSEPPEEEPNT | – | – | – | – | – | – | binds
